The source gives no read counts; variants with many changes may rest on few reads.
B1: LINE1-mini (parent)
chain: GGCAGAGCUCAACACAGCGUGGCAAAGUGGCUGUGGCUAGACUGCC

Variants of: B1
Experiment: self-cleavage, relative activity (ratio to wild type); higher = more cleavage; in vitro, sequencing; the parent is a self-cleaving ribozyme
For A24G G27C G40C, the self-cleavage was 0.17.
For G21U G35U C42U C46U, the self-cleavage was 0.08.
Variant A24U G33C A39G has a self-cleavage of 0.11.
For G22C A24G G44U, the self-cleavage was 0.07.
In the case of G22C G30C C37U, the self-cleavage is reported as 0.02.
G22U C23A G33U U43A C45G gave a self-cleavage of 0.03.
C23A A25C C37G G44U gave a self-cleavage of 0.08.
In the case of G22A C23A G29U, the self-cleavage is reported as 0.62.
Work on G22U G40A C46U yielded a self-cleavage of 0.08.
G22A U32A G36U A41G gave a self-cleavage of 0.04.
With C23A A26C G27C C37A the self-cleavage was 0.01.
Variant G22U A25U G27A has a self-cleavage of 0.81.
C23U G27U G30U G44A gave a self-cleavage of 0.46.
For C23A A24C G35U, the self-cleavage was 0.07.
G22A G27U G33U A39C showed a self-cleavage of 0.02.
G22U C23G U32A gave a self-cleavage of 0.04.
Work on A24G A25G G27A yielded a self-cleavage of 0.95.
For C23U A41C G44U, the self-cleavage was 0.13.
G22C A25C A26G gave a self-cleavage of 0.41.
For G22C G36U U43A, the self-cleavage was 0.46.
G22U G33A U38A gave a self-cleavage of 0.21.
A24G C31G U32G gave a self-cleavage of 0.01.
C23A G30A G36C A39C gave a self-cleavage of 0.07.
Work on A24G G27A G30A yielded a self-cleavage of 1.48.
Variant C23G G30U A39G has a self-cleavage of 0.02.
In the case of G22U A26U G29U G30A U38C, the self-cleavage is reported as 0.39.
Work on C23A G30A C31U yielded a self-cleavage of 0.29.
In the case of A24C G27A U28A C37G, the self-cleavage is reported as 0.02.
With C23G G30U U43C the self-cleavage was 0.07.
Variant C23G G29A U34G has a self-cleavage of 0.05.
For G22A A39G G44U, the self-cleavage was 0.08.
With G22A C23G G27A C45A the self-cleavage was 0.62.
For G22U A25G A41U C42G, the self-cleavage was 0.04.
Variant A24G A39G G44U has a self-cleavage of 0.1.
G22U G35A U43C showed a self-cleavage of 0.02.
A24G C37U C42A showed a self-cleavage of 0.09.
G22U G27A G33A U34G gave a self-cleavage of 0.08.
Work on A24C A25U U34G C37U C42G yielded a self-cleavage of 0.
C23U A26U G33U C46A showed a self-cleavage of 0.05.
In the case of A24C G33U A39G, the self-cleavage is reported as 0.07.
Work on G22U A24U A41U yielded a self-cleavage of 0.39.
C23A U43A C46U gave a self-cleavage of 0.13.
Work on G22C U28A U34G yielded a self-cleavage of 0.05.
A24G A39C G44U showed a self-cleavage of 0.03.
In the case of C23A A24U C31U U38A, the self-cleavage is reported as 0.52.
A24U C31G C37A showed a self-cleavage of 0.02.
Work on A24C G30A G36A yielded a self-cleavage of 0.07.
Work on A24G U28A G30C yielded a self-cleavage of 0.33.
C23G U43G G44C showed a self-cleavage of 0.05.
Variant C23G U34G A39U C45A has a self-cleavage of 0.02.
Work on C23U U28A C37A yielded a self-cleavage of 0.01.
Variant A24U G36A G40C C46A has a self-cleavage of 0.18.
Variant C23G A25C G27A G36A has a self-cleavage of 0.13.
For C23A C31U U38C, the self-cleavage was 0.46.
C23G G30C C31U U34C showed a self-cleavage of 0.04.
Work on C23A A24U G35U C46U yielded a self-cleavage of 0.04.
C23G A24C G30U showed a self-cleavage of 0.29.
Variant C23G A26G U32A G33A has a self-cleavage of 0.03.
A24C A26C G30C C46U showed a self-cleavage of 0.07.
C23U U38C G40U U43A showed a self-cleavage of 0.03.
G22U A25G C31G C42U showed a self-cleavage of 0.01.
A24U A41G G44A showed a self-cleavage of 0.1.
In the case of G21U G36C A41C, the self-cleavage is reported as 0.11.
C23U C31A G36U gave a self-cleavage of 0.05.
With G22C G29A G30U the self-cleavage was 0.36.
For C23U U34G G35U, the self-cleavage was 0.11.
With C23U G29A G33C U34A A39C the self-cleavage was 0.01.
Variant G22A A25U A26G G29U C37A has a self-cleavage of 0.11.
C23G G33U C42G gave a self-cleavage of 0.11.
Variant C23A G33C A41U has a self-cleavage of 0.06.
With C23A A26C U32G G33C U34C the self-cleavage was 0.16.
Variant A24C U32A C45G has a self-cleavage of 0.05.
Work on C23A C31U U38C G44C yielded a self-cleavage of 0.04.
C23U G29C C45G gave a self-cleavage of 0.45.
In the case of A24G A26U A39C, the self-cleavage is reported as 0.12.
For A24C G29A G36U G40A, the self-cleavage was 0.16.
With C23U U32C G40U the self-cleavage was 0.09.
For C23A U28G U34C, the self-cleavage was 0.16.
With A24U G35C C37A the self-cleavage was 0.06.
With A24G C31G C37G the self-cleavage was 0.01.
Variant A24G G35C G44U has a self-cleavage of 0.04.
In the case of A24G A25U C37U, the self-cleavage is reported as 0.05.
With C23G G36A C37A the self-cleavage was 0.01.
Variant G22A A26U G40C has a self-cleavage of 0.06.
For G21U U28A U38A, the self-cleavage was 0.31.
In the case of G22A C23U G36U, the self-cleavage is reported as 0.04.
With G22A U28A C37U G44A the self-cleavage was 0.02.
In the case of C23U U32G C37G G40U, the self-cleavage is reported as 0.04.
Variant C23G U38G C42A has a self-cleavage of 0.
Work on G22U G27U G33U G36U A39C G40A yielded a self-cleavage of 0.06.
Variant A24C G40C C46G has a self-cleavage of 0.01.
Work on G22A U28C G29A G30C C45A yielded a self-cleavage of 0.39.
Work on C23U G29A G40C yielded a self-cleavage of 0.06.
Work on C23U G44U C45A yielded a self-cleavage of 0.25.
In the case of A24U G30U A39C C42A, the self-cleavage is reported as 0.04.
With G22U G29A U43G the self-cleavage was 0.
With G22C G29U C46U the self-cleavage was 0.17.
With A24U U32G G40A C45G the self-cleavage was 0.06.
Variant C23U G44C C45U has a self-cleavage of 0.05.
With A24C G33C C46U the self-cleavage was 0.05.
With G22U A39U C46A the self-cleavage was 0.5.
Work on A24G G29C G40C yielded a self-cleavage of 0.04.
With G22C G29C C46U the self-cleavage was 0.41.
In the case of G22U C23G A25C, the self-cleavage is reported as 1.18.
In the case of G22U C23U G27A, the self-cleavage is reported as 2.71.
Variant C23G G35C A39U has a self-cleavage of 0.08.
In the case of G22U C31G G36C, the self-cleavage is reported as 0.
With A24C C31G C37U A41U the self-cleavage was 0.07.
With G21U G33U G40A the self-cleavage was 0.11.
With A24G U34C A39G G40A the self-cleavage was 0.13.
In the case of A24C G29A U38C, the self-cleavage is reported as 1.54.
For G22U G33C C37A, the self-cleavage was 0.06.
Work on G22A U38A A39U yielded a self-cleavage of 1.89.
For G22U A41U C42G, the self-cleavage was 0.14.
C23U G36C G40A C46G gave a self-cleavage of 0.09.
In the case of G22A A24U A39U, the self-cleavage is reported as 0.55.
G22C C31U C37A A41G gave a self-cleavage of 0.05.
Work on G22U G30U C42U yielded a self-cleavage of 0.33.
With A24U A26U U43A the self-cleavage was 0.11.
In the case of A24U G33A U34A, the self-cleavage is reported as 0.04.
With A24G A25C C46U the self-cleavage was 0.71.
Variant A24G G30C G44C has a self-cleavage of 0.08.
A24U G30A G36C showed a self-cleavage of 0.22.
In the case of C23U U28G C31U, the self-cleavage is reported as 0.75.
In the case of G22U G27A U28A U38C, the self-cleavage is reported as 0.07.
A24U G27U C37A G40A gave a self-cleavage of 0.02.
In the case of G21U U28C G30C, the self-cleavage is reported as 0.25.
With C23A U32G C37U G44C the self-cleavage was 0.05.
For G22U U32C U43C, the self-cleavage was 0.04.
C23A A39G G44A gave a self-cleavage of 0.04.
G22A G35C G40C showed a self-cleavage of 0.13.
In the case of C23A C37U U38A A39C, the self-cleavage is reported as 0.08.
In the case of C23U G33C C37A A39G C42G, the self-cleavage is reported as 0.01.
A24U G27A G35U C46U showed a self-cleavage of 0.07.
C23A C31G G35U gave a self-cleavage of 0.03.
Work on A24G G29U U34A yielded a self-cleavage of 0.08.
With C23U U32A C45G the self-cleavage was 0.17.
With A24C U34A C37G the self-cleavage was 0.01.
For G21U G36A G44C, the self-cleavage was 0.2.
With G22U G35U A41C the self-cleavage was 0.04.
In the case of C23G G29U G40A, the self-cleavage is reported as 0.11.
In the case of A24G U34C G40U G44A, the self-cleavage is reported as 0.07.
Variant C23A A25C G36U has a self-cleavage of 0.04.
With A24G A25U C45G the self-cleavage was 0.15.
For C23A U32C C45G, the self-cleavage was 0.05.
G22A G33U G36U gave a self-cleavage of 0.04.
Work on G22A U28C G33U G35U yielded a self-cleavage of 0.08.
For G22U G30U G40C, the self-cleavage was 0.1.
Work on C23U C31A G36C C37U yielded a self-cleavage of 0.05.
In the case of C23G A26G G33U, the self-cleavage is reported as 0.06.
Work on C23G G33A A41U U43A yielded a self-cleavage of 0.15.
With C23A G35U A39G A41U the self-cleavage was 0.03.
A24U G36A C45G gave a self-cleavage of 0.03.
G22C A24U A25U gave a self-cleavage of 0.45.
With G22A A26U G44U the self-cleavage was 0.39.
In the case of G22U C23G G36C A41G, the self-cleavage is reported as 0.08.
A24U U28G G33C showed a self-cleavage of 0.01.
With G22C G30U U32G C46U the self-cleavage was 0.02.
In the case of C23A A25G U28C C31U U43G, the self-cleavage is reported as 0.01.
For C23A U34A G35A C46U, the self-cleavage was 0.05.
For G22C G27A G44U, the self-cleavage was 0.19.
Work on A24G G33A U34G U43C yielded a self-cleavage of 0.05.
G21U G33U G35A gave a self-cleavage of 0.06.
Variant C23A A25C G35U G36C G44A has a self-cleavage of 0.15.
C23G G27A G35A A41C C45G C46A showed a self-cleavage of 0.07.
With C23G G30A U34G G36U the self-cleavage was 0.03.
For A24U C31G A39C, the self-cleavage was 0.05.
